# Test system: rK09/NA:Y275 virus
# Test: microbe, parasite or virus in culture
# Settings: Influenza A virus, MDCK
smiles,measurement,value
"NC(=O)c1nc(F)cnc1O [Favipiravir, 6-fluoro-3-hydroxy-2-pyrazinecarboxamide]",EC50,14.7 µM

# Source: publication PMC4081560 (PLoS ONE, 2014)
